# Data published in the supplement of paper PMC3334620.
# Over roughly 33,000 sequences, “E-score (-0.5 to 0.5)” has its median near -0.035; the highest 2% begin near 0.34. The list shows a part of the results.
# Molecular target: T1, Mot3 (UniProt P54785)
# T1 sequence: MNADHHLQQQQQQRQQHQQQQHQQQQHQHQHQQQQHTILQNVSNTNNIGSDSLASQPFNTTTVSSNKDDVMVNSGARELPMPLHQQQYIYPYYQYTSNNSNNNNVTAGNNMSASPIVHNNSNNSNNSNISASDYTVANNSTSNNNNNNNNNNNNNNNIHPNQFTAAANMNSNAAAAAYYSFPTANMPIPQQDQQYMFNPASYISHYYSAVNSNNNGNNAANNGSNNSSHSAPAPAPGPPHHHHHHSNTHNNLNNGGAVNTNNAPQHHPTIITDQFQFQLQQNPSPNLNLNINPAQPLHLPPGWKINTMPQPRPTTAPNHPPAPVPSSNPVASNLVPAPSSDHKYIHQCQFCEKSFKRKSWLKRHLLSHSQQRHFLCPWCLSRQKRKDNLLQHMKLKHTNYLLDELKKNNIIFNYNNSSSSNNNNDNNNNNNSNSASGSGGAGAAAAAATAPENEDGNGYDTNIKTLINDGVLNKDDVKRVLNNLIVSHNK
# Experiment: PBM E-score (8-mer binding enrichment) (E-score (-0.5 to 0.5)); higher = stronger / more preferred TF binding; most listed sequences are background and not binding sites
# Conditions: protein concentration: 200 nM; construct: GST-full length
# How it was run: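 GST-tagged yeast TFs (full-length or DNA-binding domain) were made by PURExpress in vitro transcription/translation and applied at about 100-200 nM to universal all-10-mer Agilent arrays. The arrays were made double-stranded by primer extension, on fresh or once-stripped slides. Bound protein was detected with fluorescent anti-GST, and scans were normalised with masliner. Each ungapped eight-base word, pooled with its reverse complement, received an E-score (modified Wilcoxon-Mann-Whitney statistic) from the Universal PBM Analysis Suite.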
row,Sequence,PBM E-score
1,TACTGTGA,-0.0621
2,ACTGGGCG,-0.198
3,ACGGTGCA,0.184
4,CTCGGGAC,-0.235
5,CAAGTGCC,0.27
6,GGGACACC,-0.229
7,ACGTTGTA,0.256
8,CCAAAGAC,-0.109
9,AATGAGAT,0.126
10,AAGCGTAG,-0.16
11,ATCGCCAG,-0.289
12,ATAACCAG,-0.106
13,TCGCCGAA,-0.167
14,CGTGTTTC,0.106
15,TCCTCCGA,-0.242
16,ATATCAGA,0.0536
17,GTAGATAA,0.14
18,GACGCCCC,-0.19
19,ATTCTCTA,-0.199
20,CCAGATGC,-0.0578
21,ACACAAGT,0.164
22,TAAGTCCA,-0.058
23,CCACACAG,-0.0906
24,GCCATATA,0.119
25,ATACATAA,0.308

row,Sequence,PBM E-score
1,GCGGGATA,-0.154
2,AGGAGACG,-0.0922
3,CGCAAGAC,-0.221
4,AGTTACCA,0.0718
5,AGCATGGC,0.0473
6,CATGTGCA,0.0911
7,ACGGAGGG,-0.169
8,CCTGTACA,0.335
9,GGTAAATA,0.0914
10,CCAATTCA,0.0279
11,CTTAAGTA,-0.0145
12,ATGCAGGA,0.0312
13,GTTACGTA,0.177
14,CATAGAAA,0.111
15,GCTAGACC,-0.284
16,CAGCGACG,-0.0741
17,AACGATGT,0.254
18,CAGGCATG,0.358
19,AGCGATCC,-0.246
20,GCTCTGGA,-0.0935
21,AGCTCCCT,-0.0912
22,GCACGAGA,-0.136
23,GCCGGTTA,-0.104
24,AGCTCCAG,-0.196
25,CCGCGATA,-0.272

row,Sequence,PBM E-score
1,CATTTTAA,0.116
2,CATCATGG,-0.316
3,GCTTTTGA,-0.0531
4,CCATCGGC,-0.207
5,CTCTTCAC,0.047
6,AATAATCA,0.0478
7,CAATTAGA,0.0319
8,CACGTGAC,0.0586
9,CAACCAGG,0.0692
10,ATCTACGA,0.00719
11,AAGTTATG,0.171
12,ACTGGGAA,-0.0465
13,GAAGTATC,-0.0457
14,ACGTGAGT,0.0732
15,CCGGTAGA,-0.175
16,AATCGCTC,-0.23
17,ACCTATAT,0.183
18,TACGACCA,0.0497
19,AGAGCACA,-0.00184
20,ACTCGGAT,0.0488
21,AAGAGCAG,-0.164
22,GGTTTATA,-0.0105
23,GATCGTCA,0.106
24,CCCCGCGG,-0.0522
25,AGGACGCA,-0.15

row,Sequence,PBM E-score
1,GGTCGCTA,-0.168
2,ACCACTGC,-0.0793
3,TCGCTCCA,-0.146
4,GCACAACA,0.35
5,AAGCTATG,-0.133
6,AGAGAACT,-0.0965
7,ACTTGGTG,-0.198
8,ACAGCGTG,0.128
9,CCGGTGTC,-0.0319
10,GACTTCAA,-0.134
11,CAAGTCGA,-0.156
12,AGCCCGAA,-0.219
13,CGCACGAA,0.0525
14,ACTTCACG,0.053
15,ACGATAGC,-0.092
16,AAACACCG,0.175
17,AGCGACGC,-0.109
18,ACTTTAGA,0.0338
19,CAGTCTGC,-0.223
20,AGGGACAC,-0.0257
21,GGGGCTTA,-0.33
22,CACAGATA,-0.0324
23,ACGCATTC,0.146
24,AAAAGCAT,0.102
25,AATTCCGC,-0.176

row,Sequence,PBM E-score
1,GGACCATA,-0.176
2,GATTCAAC,0.00876
3,GTGCGGAA,-0.144
4,ATGACCAC,0.0115
5,GAATCCAC,0.00874
6,CATATCCG,-0.0755
7,CGTGCAAG,-0.0134
8,AGCTCTAT,-0.161
9,AGGTAAAC,0.302
10,ATATAGCG,-0.13
11,CTCCGTCC,-0.262
12,AGCACCAT,-0.192
13,CAACGTGC,0.156
14,ACCTATTG,0.0711
15,GGAATCCC,-0.247
16,GGTTATTA,0.0656
17,ATCACCCA,-0.21
18,GTACGACA,0.178
19,GGATCACC,-0.202
20,CTTAATTC,0.081
21,GACAGCGA,-0.349
22,ACGAATAT,0.0335
23,CGCTTAGC,-0.259
24,CCGTGGCA,-0.149
25,AGCACCCG,-0.356

row,Sequence,PBM E-score
1,GCGGCTCC,-0.325
2,AACGTACA,0.197
3,CGGCCGGC,-0.31
4,GGTAACTA,0.135
5,CAGGAAAG,0.432
6,CCTAAAAG,0.223
7,CAAGGCTG,-0.0186
8,GGCAGTCA,-0.0543
9,CGTGCGTC,0.0502
10,CATTCACC,0.0164
11,ACGCGTGA,0.157
12,ACTGTGGC,-0.117
13,AACGGCTC,-0.269
14,AGCTGTCA,-0.0426
15,AACGCCCA,0.00502
16,CAGAAACC,0.0458
17,CGTTCGGA,-0.212
18,CACAGGGA,-0.0113
19,CTCCACTC,-0.242
20,CGCCTTAG,-0.139
21,ACTCCAGG,0.0384
22,GCTAGTAA,0.0707
23,CAATCTAA,-0.024
24,AGTGTATA,0.0776
25,GAGTTCGC,-0.19

row,Sequence,PBM E-score
1,GACCGGTA,-0.223
2,AAACTACT,0.0472
3,CGCGTGAG,0.00628
4,AGCGAGCT,-0.106
5,AGGTTCAC,0.0242
6,CACAGGCA,0.482
7,CGTTGATC,0.198
8,AAAGATGT,0.116
9,CCTAGCCC,-0.261
10,GAGGAGCC,-0.0818
11,ATATCGCG,0.00295
12,AACGGAGA,-0.0586
13,GCATCAAA,0.0378
14,AAGACTAC,0.0545
15,CCACGTGC,0.106
16,GACTGGCC,-0.333
17,ATCCAAGC,-0.159
18,CATCTACA,0.262
19,AAGCAAGT,0.0738
20,CCCACTAC,0.0263
21,ATAGACTA,0.0348
22,GTGGTCGA,-0.203
